Assay results reported in article PMC6212790.
The list shows a part of the results. At the low end of the ranking the order means little.

What follows are sequences tested against T1, GST-Rok (full length) (UniProt O34857) (assay: protein binding microarray). Details: Rok is a gene silencer of Bacillus subtilis; high values mean tight binding; most listed sequences are background and not binding sites; double strand, one strand shown.
T1 sequence: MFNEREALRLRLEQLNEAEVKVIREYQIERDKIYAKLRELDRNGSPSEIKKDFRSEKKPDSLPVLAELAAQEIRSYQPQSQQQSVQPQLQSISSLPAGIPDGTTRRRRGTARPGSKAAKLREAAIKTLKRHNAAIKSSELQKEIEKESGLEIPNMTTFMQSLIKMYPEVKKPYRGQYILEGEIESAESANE
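Note: rank score from −0.5 (least bound) to 0.5 (best bound).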

| Sequence | binding signal |
| --- | --- |
| ACATTAAG | 0.141 E-score |
| CTACATAG | 0.153 E-score |
| TGATGCAA | -0.0283 E-score |
| CCGGGCTC | -0.338 E-score |
| CGGATTCC | -0.313 E-score |
| CTTCTCCA | 0.0579 E-score |
| AACGACTC | -0.0273 E-score |
| ACCTTGAG | -0.11 E-score |
| AGGGTTGC | -0.108 E-score |
| GGCCCACC | -0.424 E-score |
| GATAACCC | -0.126 E-score |
| ATGTAATG | 0.228 E-score |
| AAGTCTAT | 0.021 E-score |
| GACGAACC | -0.176 E-score |
| GCCCCGGC | -0.295 E-score |
| CTGCACAG | 0.0169 E-score |
| GACACATA | 0.123 E-score |
| AAGCGGTG | -0.18 E-score |
| CCATGCCG | -0.276 E-score |
| CCCAGAGC | -0.345 E-score |
| GACCGGTA | 0.134 E-score |
| AGGTTGGA | -0.206 E-score |
| ACCGTCGG | -0.145 E-score |
| AGACACAT | 0.156 E-score |

| Sequence | binding signal |
| --- | --- |
| GACTTTGC | -0.0328 E-score |
| GTATGGCA | 0.00824 E-score |
| CTGACCTC | -0.257 E-score |
| CAACTTAA | -0.00322 E-score |
| AGGTAGGA | 0.0438 E-score |
| CTCTTCGA | -0.23 E-score |
| AGACAGTA | 0.0571 E-score |
| TCGATCAA | 0.12 E-score |
| TCAACGGA | -0.0288 E-score |
| AATTAGTC | 0.257 E-score |
| ATCCTAAT | 0.0786 E-score |
| AGAACTAG | 0.298 E-score |
| CCCCACTC | -0.373 E-score |
| GCAACACA | -0.00483 E-score |
| CGATCTTC | -0.0351 E-score |
| GAACGACC | -0.0957 E-score |
| CCCCTGCG | -0.249 E-score |
| ATGTTACA | 0.229 E-score |
| ATAGGATC | 0.213 E-score |
| GCCCATAC | -0.173 E-score |
| AGCGTCAC | -0.1 E-score |
| AAATACTG | 0.327 E-score |
| ATAGGCAC | 0.12 E-score |
| CTCTGTTC | 0.0552 E-score |

| Sequence | binding signal |
| --- | --- |
| ACGAAACT | 0.337 E-score |
| AGGCTATG | -0.338 E-score |
| AGCACCCA | -0.0379 E-score |
| AGCGCGCG | 0.123 E-score |
| CTCTGGCC | -0.235 E-score |
| GACTGATA | 0.238 E-score |
| GGACCATA | 0.0127 E-score |
| TCGCGAAA | 0.165 E-score |
| GCCGCCCC | -0.466 E-score |
| CAAAAGGC | -0.0979 E-score |
| AGCCCAGG | -0.222 E-score |
| ACCACTCT | 0.00781 E-score |
| GCATCCCA | -0.196 E-score |
| GGCGCTAA | -0.0299 E-score |
| GATGTCGC | -0.226 E-score |
| GCCAAGGC | -0.306 E-score |
| ATTGTGAC | 0.0441 E-score |
| CATAAACG | 0.0452 E-score |
| ACCTCTAC | 0.205 E-score |
| CCTATCAA | 0.161 E-score |
| ACAAATAA | 0.333 E-score |
| AAGGAAAA | -0.0492 E-score |
| CCCACTAA | -0.00169 E-score |
| GCTATGCA | 0.0574 E-score |

| Sequence | binding signal |
| --- | --- |
| ATGTCTAC | 0.0623 E-score |
| CCCGCCAG | -0.328 E-score |
| CATATCTC | 0.106 E-score |
| CGTGGCAC | -0.367 E-score |
| CTACTCCA | 0.154 E-score |
| GGGTCAAC | -0.212 E-score |
| CGACGAGC | -0.0768 E-score |
| AAGAGCTT | -0.0281 E-score |
| AGGTATAT | 0.258 E-score |
| ATCAGAAC | 0.173 E-score |
| CACCATGC | -0.142 E-score |
| GGGAGAAA | -0.11 E-score |
| GCGCTCGA | -0.175 E-score |
| CTCGGGCC | -0.279 E-score |
| GACCAGCA | -0.271 E-score |
| TAGGGCCA | -0.106 E-score |
| CATCACCC | -0.208 E-score |
| ATGGAACG | -0.0345 E-score |
| AAAATCTA | 0.244 E-score |
| AGTCAGGA | -0.131 E-score |
| AGATATCG | 0.218 E-score |
| GAAGCAAC | 0.0226 E-score |
